Source: PMC4336329 (PLoS ONE, 2015)
About 2,200 (0.71%) of roughly 310,000 compounds showed an effect of 50% or more. The effect is printed as a negative number. This is one part of the list.

The compounds below were run against human ether-à-go-go-related gene (hERG) potassium channel (human, UniProt Q12809) (assay: primary screen, population patch clamp on CHO cells stably expressing hERG).
Chain of human ether-à-go-go-related gene (hERG) potassium channel (Q12809 whole entry, looked up): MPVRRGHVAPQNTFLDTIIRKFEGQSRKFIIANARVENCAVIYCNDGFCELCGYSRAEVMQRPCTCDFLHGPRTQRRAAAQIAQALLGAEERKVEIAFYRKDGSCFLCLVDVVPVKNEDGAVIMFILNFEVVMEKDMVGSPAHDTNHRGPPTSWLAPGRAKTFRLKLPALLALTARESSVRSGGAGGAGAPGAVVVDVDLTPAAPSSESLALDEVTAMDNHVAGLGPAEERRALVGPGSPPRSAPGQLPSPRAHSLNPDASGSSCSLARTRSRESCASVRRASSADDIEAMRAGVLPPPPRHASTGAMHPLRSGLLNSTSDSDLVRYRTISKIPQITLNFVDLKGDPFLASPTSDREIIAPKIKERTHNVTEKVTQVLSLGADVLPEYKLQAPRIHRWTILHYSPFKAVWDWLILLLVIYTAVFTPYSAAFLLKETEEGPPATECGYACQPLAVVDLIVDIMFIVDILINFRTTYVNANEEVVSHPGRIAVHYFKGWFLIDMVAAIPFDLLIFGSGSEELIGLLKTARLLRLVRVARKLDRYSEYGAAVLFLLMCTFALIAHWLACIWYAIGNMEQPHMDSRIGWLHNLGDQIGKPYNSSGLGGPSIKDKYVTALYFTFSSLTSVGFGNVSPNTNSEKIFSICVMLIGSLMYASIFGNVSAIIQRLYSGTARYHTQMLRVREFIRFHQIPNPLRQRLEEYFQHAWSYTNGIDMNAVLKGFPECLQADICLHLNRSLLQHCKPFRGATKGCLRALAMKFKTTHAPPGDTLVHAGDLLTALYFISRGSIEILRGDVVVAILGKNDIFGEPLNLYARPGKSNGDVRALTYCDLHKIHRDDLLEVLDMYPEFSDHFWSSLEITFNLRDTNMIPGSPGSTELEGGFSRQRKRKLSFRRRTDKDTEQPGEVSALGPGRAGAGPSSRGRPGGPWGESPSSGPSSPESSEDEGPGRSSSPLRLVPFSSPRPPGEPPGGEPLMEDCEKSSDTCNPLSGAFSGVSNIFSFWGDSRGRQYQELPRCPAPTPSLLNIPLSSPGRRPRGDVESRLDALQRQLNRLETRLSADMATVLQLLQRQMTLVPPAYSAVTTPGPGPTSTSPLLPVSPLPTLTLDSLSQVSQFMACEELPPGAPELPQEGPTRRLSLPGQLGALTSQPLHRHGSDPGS

Compound | hERG current change (%, negative = inhibition) at 1uM [%]
COc1ccc(CC(=O)OCC(=O)N2CCCc3ccccc32)cc1 | 7.67
CC1CCCC(C)N1S(=O)(=O)c1ccc(S(=O)(=O)N2CCOCC2)cc1 (stereo not drawn) | 12
CC[C@@H]1[C@H]2CCCC(=O)N3CC[C@@H](C[C@@H]1OC(=O)Nc1ccccc1)[C@@H]23 | -2.93
Clc1ccc2c(c1)C(c1ccccc1Cl)=NCc1nnc(N3CCN(CCOc4ccccc4)CC3)n1-2.O=C(O)/C=C/C(=O)O | -50.8
Cc1ccc(NC(=O)COC(=O)CCC(=O)c2cccs2)cc1S(=O)(=O)N1CCOCC1 | -6.28
CCN(C(=O)c1cnc(NC(C)C)cc1C(F)(F)F)c1ccc(Cl)cc1 | -10.7
COc1ccc(OCc2nc3c4cc(OC)c(OC)cc4nc(=S)n3[nH]2)cc1 | 7.77
Cc1cc2oc(=O)cc(CN3CCN(Cc4ccccc4)CC3)c2cc1O | -12.5
CC(/C=C/c1ccco1)=N\NC(=O)CNc1cccc(C)c1 | 7.79
CCOCCOC(=O)c1[nH]c2c(c1C)C(=O)CC(c1ccc(N(C)C)cc1)C2 (stereo not drawn) | 6.95
COc1ccc(-n2c(Cc3cccs3)nnc2SCC(=O)Nc2ccc3c(c2)OCCO3)cc1 | 4.87
O=C(O)c1cc(/C=C/c2ccc(N3CCOCC3)c([N+](=O)[O-])c2)nc2ccccc12 | 5.33
CC(=O)NC(CC(=O)NNC(=O)c1cc2ccccc2cc1O)c1ccccc1 (stereo not drawn) | 5.27
COC(=O)c1c(C#N)c(N)nc2c1CCCC2 | 12
COc1ccc2nc(NC(=O)Cc3cccs3)sc2c1 | 12.4
O=C(NCCc1csc(-c2cccnc2)n1)c1ccco1 | 18.2
Oc1ccc(Br)cc1/C=N/NC(=S)NCCc1ccccc1 | 11.7
CNC(=O)c1cc(C(=O)c2ccc(Cl)cc2)c[nH]1 | 8.7
COC(=O)c1ccc(SCC(=O)NCc2ccccc2)c([N+](=O)[O-])c1 | 4.07
CC(C)[C@@H](C(=O)OCC(=O)Nc1ccc2c(c1)OCO2)N1C(=O)c2ccccc2C1=O | 7.75
CN(C)P(=S)(Nc1ccccc1)C(Cl)(Cl)Cl (stereo not drawn) | 13.4
O=C(Nc1ccc(S(=O)(=O)N2CCc3ccccc32)cc1)C(F)(F)F | 9.42
COC(=O)c1[nH]c(C)c(/C(O)=C2\C(=O)C(=O)N(CCN3CCOCC3)C2c2cccs2)c1C (stereo not drawn) | 4.55
NC(=O)CSC1=Nc2ccccc2C2=NC(c3ccccc3)C(=O)N12 (stereo not drawn) | 3.8
Clc1nc2ccccc2cc1-c1nnn(-c2ccccc2)n1 | 14
COc1ccc(OCCSc2nnc(-c3ccoc3C)n2C)cc1 | -0.684
Cc1cccc(N2C(=O)N3[C@H](c4ccc(Br)cc4)[C@@H]4C(=O)N(C(C)(C)C)C(=O)[C@@H]4[C@]3(Cc3ccc(Cl)cc3)C2=O)c1 | 19.1

Compound | hERG current change (%, negative = inhibition) at 1uM [%]
CC(NC(=S)Nc1ccccc1Cl)C(c1ccccc1)N1CCOCC1 (stereo not drawn) | -9.49
O=S(=O)(CC(CN1CCCCC1)N1CCCCC1)c1ccccc1 (stereo not drawn) | 6.73
CC/C(=C/c1ccccc1)c1cccc2[nH]c3c(OC)cccc3c12 | 16.9
COc1ccc(N=C2C(=Nc3ccc(OC)cc3)N(c3ccc(OC)cc3)C(=S)N2C)cc1 | 12
CC(=O)/C(=N\Nc1ccc(Cl)cc1Cl)Sc1cccc2cccnc12 | 15.2
COCCN(CC1CCCN(C2Cc3ccccc3C2)C1)C(=O)CSC (stereo not drawn) | 7.99
N/C(=N\c1nc2c(c(=O)[nH]1)CCCC2)Nc1ccc(Oc2ccccc2)cc1 | 7.09
Cc1ccc(C)c(N2CCN(C(=O)c3ccc4nsnc4c3)CC2)c1 | 9.76
CSc1ccc(C2C(C#N)=C(N)Oc3cc4c(cc32)OCO4)cc1 (stereo not drawn) | 8.84
CCCCCCCOC1(c2ccccc2)OC(=O)c2ccccc21 (stereo not drawn) | 7.94
O=C1OC(c2ccccc2)=C/C1=C/c1cccs1 | 10.6
COc1cc(NC(=O)c2cc(OC)c(OC)c(OC)c2)ccc1NC(=O)c1cccs1 | -0.934
CC1Sc2ccc(S(=O)(=O)N3CCC(C(=O)N4CCN(C)CC4)CC3)cc2NC1=O (stereo not drawn) | 8.11
C=CCN1C(=O)C(O)(CC(=O)c2ccc(OC)cc2OC)c2cc(Br)ccc21 (stereo not drawn) | 12.8
CCC1(C)CC(=O)N(c2ccc(C(=O)O)c(O)c2)C1=O (stereo not drawn) | 9.26
CCOc1ccc(NC(=O)c2nsc(Cl)c2Cl)cc1 | 2.21
CCc1ccc(/C=C2\SC(=S)N(CCC(=O)Nc3cc(C)on3)C2=O)cc1 | 11.3
COc1ccc(NC(=O)CSc2ccc(-c3cccnc3)nn2)cc1 | 10.3
O=C(Nc1ccc(Oc2ccccc2)cc1)N[C@@H](Cc1ccccc1)C(=O)O | 18.7
O=C(CNC(=O)c1ccccc1)NCCO | 7.56
CC(C)(C)OC(=O)COc1cc(O)c2c(=O)cc(-c3ccccc3)oc2c1 | -8.48
O=C(NCCc1ccc(Cl)cc1)C1CC(=O)N(C2CCCCC2)C1 (stereo not drawn) | 7.17
Cc1cc([N+](=O)[O-])c(NCCCCCCO)c([N+](=O)[O-])c1 | 0.379
C/C(=N\NC(=O)c1sccc1-n1cccc1)c1cccs1 | 9.02
O=C(Nc1cccc(C(F)(F)F)c1)c1cncs1 | 15.5
O=C(NC1CCCC1)C(c1ccc(N2CCOCC2)cc1)N(Cc1ccco1)C(=O)c1ccco1 (stereo not drawn) | 7.2
CC(C)(C)Nc1c([N+](=O)[O-])c(=O)sc2ccccc12 | 12.1
